For two compounds, GI50 and TGI results are on record in PubChem BioAssay (NCI).

Structures are written as SMILES.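 Dose response: 5 concentrations. Exposure: 48 h. Format: 96-well plates. Endpoint: linear interpolation; highest concentration if not reached. Abbreviation: GI50, concentration required for 50% inhibition of growth.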 Some entries of the source have several records that differ or are many. This list holds those alone. The source may hold further records. The tests behind the records often covered other concentration ranges, which the source does not state; some values may only mark the edge of a range.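 TGI is the concentration that stops growth completely.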

Assay in all cases: inhibition of tumour cell growth, NCI panel, 48 h
Assay [1] has as its system HL-60(TB) leukemia.
Assay [2] deals with NCI-H522 lung.
Assay [3] deals with MOLT-4 leukemia.
Assay [4] has as its system RPMI-8226 leukemia.
The test system of assay [5] is K-562 leukemia.
The test system of assay [6] is CCRF-CEM leukemia.
The test system of assay [7] is A549 NSCLC.
In assay [8] the test system is HOP-62 NSCLC.

In the case of `S=C(S)N1CCCCC1`, the GI50 in assay [1] was 6.86 µM and > 406 µM; in assay [3], 34.5 nM and 114 µM; in assay [4], 58.3 nM and > 406 µM; in assay [6], 223 nM and 46.7 µM. The TGI in assay [1] was 854 nM, 33.7 µM, > 406 µM; in assay [2], 1.14 µM and 93.3 µM; in assay [3], 20.3 µM and > 406 µM; in assay [5] it was 8.17 µM and > 406 µM; in assay [6], 715 nM and > 406 µM.
As for `CC(=O)NC1C(OCc2ccccc2)OC(CO)C(O)C1OC(C)C(=O)NC(C)C(=O)N[C@@H](CCC(=O)OCCCNC1c2ccccc2Nc2cccc([N+](=O)[O-])c21)C(N)=O` (stereo partly specified), the TGI in assay [7] is 335 nM and 12.4 nM; in assay [8], 117 nM and 10.5 nM.
